Measurements reported in patent US20250368754A1 (KANAPH THERAPEUTICS, published 2025).

Key:
[1] = target: T1, recombinant human lymphotoxin beta receptor (LTβR) (human, UniProt P36941 28-227, limits assumed); assay: SPR, human LTβR immobilised on CM5, fusion protein as analyte, 1:1 binding model
T1 construct: neither construct is described; also called human LTβR; recombinant human LTβR protein
Procedure: Specifically, the surface of the CM5 chip was activated with a 1:1 mixture of […], and 5 μg/mL of human LTβR was immobilized for 60 seconds at a rate of 10 μL/min. The remaining active ester groups were blocked with 1 M ethanolamine. […] The diluted fusion proteins were reacted at a rate of 30 μL/min. The association and dissociation times were 180 seconds and 400 seconds, respectively. After the dissociation step, stabilization was performed for 60 seconds, and then the regeneration step was performed for 30 seconds with a 10 mM glycine pH 1.5 solution at a rate of 30 μL/min.

[2] = target: T2, recombinant human herpes virus entry mediator (HVEM) (human, UniProt Q92956 39-202); assay: SPR, human HVEM immobilised on CM5, fusion protein as analyte, 1:1 binding model
T2 construct: neither construct is described; also called human HVEM; recombinant human HVEM protein (R&D systems)
T2 sequence (looked up): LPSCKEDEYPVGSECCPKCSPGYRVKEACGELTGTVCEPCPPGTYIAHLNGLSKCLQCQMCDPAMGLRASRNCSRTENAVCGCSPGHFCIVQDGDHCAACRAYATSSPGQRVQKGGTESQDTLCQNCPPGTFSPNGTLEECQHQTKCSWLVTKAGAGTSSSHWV
Procedure: (§1) Specifically, the surface of the CM5 chip was activated with a 1:1 mixture of […], and 5 to 6 μg/mL of human HVEM was immobilized for 60 seconds at a rate of 10 μL/min. The remaining active ester groups were blocked with 1 M ethanolamine. T3.01, T3.07, T3.09, T3.14, and T3.18 were each diluted to 100 nM in 1×HBS-EP+buffer solution and diluted by serial dilution. The diluted fusion proteins were reacted at a rate of 30 μL/min. The association and dissociation times were 180 seconds and 400 seconds, respectively. After the dissociation step, stabilization was performed for 60 seconds, and then the regeneration step was performed for 30 seconds with a 10 mM glycine pH 1.5 solution at a rate of 30 μL/min.

[3] = target: T3, human DcR3 (human, UniProt O95407 30-300); assay: SPR, human DcR3 immobilised on CM5, fusion protein as analyte, 1:1 binding model
T3 construct: also called LIGHT receptor DcR3
T3 sequence (looked up): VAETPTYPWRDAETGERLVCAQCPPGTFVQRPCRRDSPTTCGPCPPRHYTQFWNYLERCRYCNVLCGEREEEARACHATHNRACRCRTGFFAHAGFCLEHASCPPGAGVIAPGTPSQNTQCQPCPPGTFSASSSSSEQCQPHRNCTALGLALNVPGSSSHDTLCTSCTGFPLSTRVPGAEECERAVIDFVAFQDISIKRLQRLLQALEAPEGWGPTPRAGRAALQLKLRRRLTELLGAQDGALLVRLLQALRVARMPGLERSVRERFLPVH
Procedure: as §1, with “DcR3” for “HVEM”, “50 nM or 200” for “100”

T1 sequence (P36941 28-227 limits assumed): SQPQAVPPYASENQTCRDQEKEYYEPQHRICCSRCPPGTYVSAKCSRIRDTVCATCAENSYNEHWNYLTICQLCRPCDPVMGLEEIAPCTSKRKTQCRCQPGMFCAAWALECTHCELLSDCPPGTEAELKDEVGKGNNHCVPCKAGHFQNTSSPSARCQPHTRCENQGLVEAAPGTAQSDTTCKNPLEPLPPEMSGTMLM

Kd [2]: 4.17 nM | koff [2]: 0.00167 s⁻¹ | kon [2]: 401000 M⁻¹ s⁻¹ | Kd [3]: 0.711 nM | koff [3]: 0.000285 s⁻¹ | kon [3]: 400000 M⁻¹ s⁻¹
B1: T3.09 (anti-hu FAP-hu scLIGHT2/anti-hu FAP-hu LIGHT, hu IgG1 (2 + 1)) (bispecific antibody)
heavy 1: QVQLVQSGAEVKKPGASVKVSCKTSRYTFTEYTIHWVRQAPGQRLEWIGGINPNNGIPNYNQKFKGRVTITVDTSASTAYMELSSLRSEDTAVYYCARRRIAYGYDEGHAMDYWGQGTLVTVSS[human IgG1 constant region with changes not spelt out]GGGSGGGGSEVNPAAHLTGANSSLTGSGGPLLWETQLGLAFLRGLSYHDGALVVTKAGYYYIYSKVQLGGVGCPLGLASTITHGLYKRTPRYPEELELLVSQQSPCGRATSSSRVWWDSSFLGGVVHLEAGEKVVVRVLDERLVRLRDGTRSYFGAFMVGGSGEVNPAAHLTGANSSLTGSGGPLLWETQLGLAFLRGLSYHDGALVVTKAGYYYIYSKVQLGGVGCPLGLASTITHGLYKRTPRYPEELELLVSQQSPCGRATSSSRVWWDSSFLGGVVHLEAGEKVVVRVLDERLVRLRDGTRSYFGAFMV
heavy 2: QVQLVQSGAEVKKPGASVKVSCKTSRYTFTEYTIHWVRQAPGQRLEWIGGINPNNGIPNYNQKFKGRVTITVDTSASTAYMELSSLRSEDTAVYYCARRRIAYGYDEGHAMDYWGQGTLVTVSSASTKGPSVFPLAPSSKSTSGGTAALGCLVKDYFPEPVTVSWNSGALTSGVHTFPAVLQSSGLYSLSSVVTVPSSSLGTQTYICNVNHKPSNTKVDKKV[human IgG1 Fc with changes not spelt out]GGGSGGGGSEVNPAAHLTGANSSLTGSGGPLLWETQLGLAFLRGLSYHDGALVVTKAGYYYIYSKVQLGGVGCPLGLASTITHGLYKRTPRYPEELELLVSQQSPCGRATSSSRVWWDSSFLGGVVHLEAGEKVVVRVLDERLVRLRDGTRSYFGAFMV
light: DIVMTQSPDSLAVSLGERATINCKSSQSLLYSRNQKNYLAWYQQKPGQPPKLLIFWASTRESGVPDRFSGSGFGTDFTLTISSLQAEDVAVYYCQQYFSYPLTFGQGTKVEIKRTVAAPSVFIFPPSDEQLKSGTASVVCLLNNFYPREAKVQWKVDNALQSGNSQESVTEQDSKDSTYSLSSTLTLSKADYEKHKVYACEVTHQGLSSPVTKSFNRGEC
notes: As T3.07 but without the DANG mutations; two copies of the light chain follow from the (2 + 1) format
Kd [1]: 0.628 nM | koff [1]: 0.000483 s⁻¹ | kon [1]: 770000 M⁻¹ s⁻¹
